Laboratory results as given in publication PMC4336329 (PLoS ONE, 2015).
The whole screen tested about 310,000 compounds, of which about 2,200 (0.71%) showed an effect of 50% or more. The effect is printed as a negative number. The list shows a part of the results.

Each compound was assayed against human ether-à-go-go-related gene (hERG) potassium channel (human, UniProt Q12809) (assay: primary screen, population patch clamp on CHO cells stably expressing hERG).
Sequence of human ether-à-go-go-related gene (hERG) potassium channel (Q12809 whole entry, looked up): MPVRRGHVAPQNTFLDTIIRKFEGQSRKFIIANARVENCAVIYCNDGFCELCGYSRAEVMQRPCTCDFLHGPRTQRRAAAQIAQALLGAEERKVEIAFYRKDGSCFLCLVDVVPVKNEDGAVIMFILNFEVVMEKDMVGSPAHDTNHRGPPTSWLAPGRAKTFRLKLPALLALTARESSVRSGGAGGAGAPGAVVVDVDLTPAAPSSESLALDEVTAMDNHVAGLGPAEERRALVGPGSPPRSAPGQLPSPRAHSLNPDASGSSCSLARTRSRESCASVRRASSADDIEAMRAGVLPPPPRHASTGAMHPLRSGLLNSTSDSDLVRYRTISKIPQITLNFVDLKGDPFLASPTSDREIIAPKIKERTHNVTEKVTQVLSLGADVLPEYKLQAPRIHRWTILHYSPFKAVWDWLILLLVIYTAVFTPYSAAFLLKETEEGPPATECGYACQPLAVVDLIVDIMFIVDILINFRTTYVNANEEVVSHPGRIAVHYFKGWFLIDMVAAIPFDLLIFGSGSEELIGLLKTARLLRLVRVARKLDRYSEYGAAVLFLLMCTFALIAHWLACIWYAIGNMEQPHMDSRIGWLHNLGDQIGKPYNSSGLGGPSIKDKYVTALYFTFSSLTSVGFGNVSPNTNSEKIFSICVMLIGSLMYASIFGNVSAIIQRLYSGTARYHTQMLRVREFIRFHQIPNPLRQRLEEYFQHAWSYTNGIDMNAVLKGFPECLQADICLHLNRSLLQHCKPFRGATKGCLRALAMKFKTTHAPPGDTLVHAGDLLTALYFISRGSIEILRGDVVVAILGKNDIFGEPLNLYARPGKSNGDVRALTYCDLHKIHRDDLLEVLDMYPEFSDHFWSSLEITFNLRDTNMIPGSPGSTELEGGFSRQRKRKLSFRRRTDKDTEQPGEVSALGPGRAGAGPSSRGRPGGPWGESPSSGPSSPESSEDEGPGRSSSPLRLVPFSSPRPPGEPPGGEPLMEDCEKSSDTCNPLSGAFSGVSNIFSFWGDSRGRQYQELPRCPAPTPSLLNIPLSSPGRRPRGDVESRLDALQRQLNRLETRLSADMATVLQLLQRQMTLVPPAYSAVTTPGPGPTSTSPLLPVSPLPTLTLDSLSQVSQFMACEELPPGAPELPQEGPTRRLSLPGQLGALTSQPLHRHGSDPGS

SMILES | hERG current change (%, negative = inhibition) at 1uM
Cc1cc(CNC(=O)COc2cc(F)ccc2[N+](=O)[O-])c2ccccc2n1 | 2.93%
Cc1nc2nc(COc3ccccc3)[nH]n2c(=O)c1C | 9.79%
Cc1cc(C)c(NC(=O)C(=O)NCc2ccco2)c(C)c1 | 15.6%
Cn1nnnc1NCc1ccc(Cl)c(Cl)c1 | 5.37%
O=C(CCN1CCN(c2ccccc2)CC1)Nc1nccs1 | 12.9%
C=CC[n+]1c(-c2ccc(C)cc2)csc1NNC(=O)Nc1ccccc1.[Br-] | -1.29%
COc1ccc(C(=O)NNC(=O)CSc2nc(C(C)C)nc3ccccc23)cc1 | 8.61%
CCOC(=O)c1ccc(NC(=O)Cc2coc3cc4c(cc23)CCC4)cc1 | 8.71%
COc1ccc(CNC(=O)CN2CCN(c3ccc(F)cc3)CC2)cc1 | -2.16%
O=C(Nc1ccc(Cl)c(Cl)c1)N(Cc1cccnc1)Cc1ccco1 | 2.54%
CCn1c(=O)c2cc(C(=O)N3CCN(C)CC3)sc2c2ccccc21 | 12%
COC(=O)c1ccc(C(=O)OC)c(NC(=S)N2CCC(C)CC2)c1 | 6.75%
CCCNC(=O)C1CCC(CNS(=O)(=O)c2ccc3c(c2)CC(C)N3C(C)=O)CC1 (stereo not drawn) | 18.8%
Cc1cccc(NC(=O)CCCCCN2C(=O)[C@@H]3Cc4ccccc4CN3C2=O)c1 | 9.09%
CCn1nc(C)c(NS(=O)(=O)c2ccc(C)cc2)c1C | 8.84%
O=C(Cc1ccc(F)cc1)Nc1c(C(=O)N2CCN(c3ncccn3)CC2)oc2ccccc12 | -8.61%
COC(=O)c1ccc(SC)cn1 | 12.3%
Clc1ccc2c(NCc3ccccn3)ncnc2c1 | 5.65%
C1COC(NC(C2CC2)C2CC2)=N1.O=C(O)/C=C/C(=O)O | 16.7%

SMILES | hERG current change (%, negative = inhibition) at 1uM
Clc1ccc(N/N=C/c2cccnc2)cc1 | 4.53%
COc1ccc(C(=O)O)cc1S(=O)(=O)Nc1ccc(C)cc1 | 13.2%
COC1=CC(=Cc2c(N)n3nc(CC(=O)N4CCCCC4)sc3nc2=O)C=C(OC)C1=O | 10.6%
COc1ccc(C(CNC(=O)Cc2ccc(-c3ccccc3)cc2)N(C)C)cc1 (stereo not drawn) | 10.2%
Cc1ccc(-n2c(=O)c3sccc3n(CC(=O)NC3CCCC3)c2=O)cc1 | 3.5%
CCc1ccccc1NC(=O)CSc1nc(-c2ccccc2)nn1C(=O)c1cccc([N+](=O)[O-])c1 | 9.27%
CCc1cccc(NC(=O)CCS(=O)(=O)c2cc3c(cc2C)NC(=O)CO3)c1 | -1.32%
CCCCC(=O)Nc1sc(C(=O)N(CC)CC)c(C)c1C(=O)OC | 6.48%
O=C(NCc1ccccc1)C1=C[C@@H](C2CCCCC2)C[C@@H](OCCCCO)O1 | 12%
CCOc1ccc(-c2ccc(C=O)o2)c([N+](=O)[O-])c1 | 7.63%
CCC1(c2ccccc2)ON(c2c(Br)cccc2Br)C1=O (stereo not drawn) | 17.3%
Cc1nc(C)c(C(=O)Nc2ncc([N+](=O)[O-])s2)o1 | 15.5%
CCN(C(=O)COC(=O)/C(=C/c1ccccc1)n1nnnc1C)C1CCCCC1 | 13.5%
Cc1ccc(CN2C(=O)CCSc3ccc(Cl)cc32)cc1 | 7.89%
Cn1c(N2CCN(C(=O)Nc3ccc(F)cc3)CC2)nc2ccccc21 | -21.9%
CCCc1[nH]n(-c2nc3ccccc3s2)c(=O)c1C=NCC(C)C | 6.14%
COc1ccc(C(=O)NCc2ccc3[nH]c(C)cc3c2)cc1OC | 0.152%
CN1C(=O)CSC1=Nc1ccc(F)cc1 | 17.6%
O=C1COc2ccc(S(=O)(=O)N3CCc4ccccc43)cc2N1 | -7.51%

SMILES | hERG current change (%, negative = inhibition) at 1uM
O=C(NCCCO)C(=O)NCc1ccncc1 | 16.2%
CCn1c(C)nc2cc(C(=O)N/N=C/c3cccc(OC)c3O)ccc21 | 15.2%
O=C(C1=C(O)C(=O)N(Cc2ccccc2)C1c1ccco1)c1ccco1 (stereo not drawn) | 24%
c1ccc(-c2cc3c(ccc4nonc43)nn2)cc1 | 13.6%
CN1/C(=C\C(=O)c2ccco2)C(C)(C)c2ccccc21 | 4.59%
CCOc1ncccc1C(=O)Nc1cccc(S(=O)(=O)NC2=NCCC2)c1 | 6.75%
Cc1ccc(S(=O)(=O)c2ccc([N+](=O)[O-])cn2)cc1 | 10%
Cc1ccccc1NC(=O)CN1C(=O)S/C(=C\c2ccc(-c3cccc(C(=O)O)c3C)o2)C1=O | 18.2%
CCCC(C(=O)NC(C)(C)C)N(Cc1ccccc1Cl)C(=O)c1snc(C(N)=O)c1N (stereo not drawn) | 10.8%
COc1cccc(NC(=O)CCSc2nnc3scc(-c4ccccc4)n23)c1 | 6.91%
COc1cccc(NC(=O)CSc2nc(=O)n(CCN(C)C)c3c2CCCC3)c1 | -12.6%
C=CCC1(C(=O)NCCO)CCN(C(=O)OC(C)(C)C)CC1 | 3.42%
Cc1cc(C)nc(NS(=O)(=O)c2ccc(NC(=O)c3cc4c(=O)n5cccc(C)c5nc4n3C)cc2)n1 | 14.3%
CC(C)=CC(=O)OCC(=O)Nc1cc([N+](=O)[O-])ccc1F | 10.5%
CCn1c(C(=O)N2CCC(C(=O)NCCCSC3CCCCC3)CC2)cc2sccc21 | -2.74%
O=C(N=Nc1c(O)[nH]c2ccccc12)c1cccc(S(=O)(=O)Nc2ccccc2Cl)c1 | 0.81%
CCOC(=O)c1c(-c2ccccc2)oc2cc(Br)c(O)cc12 | 3.57%
CN(C)CCC(O)(c1ccccc1)c1ccccc1.Cl | -9.15%
C=CCNC(=O)c1cnc2n(c1=O)CCS2 | 12.2%
